According to doi:10.1101/2024.11.06.622243, “The MRAP2 accessory protein directly interacts with melanocortin-3 receptor to enhance signaling” (bioRxiv, 2024):

Molecular target: T1, HA-Halo-MRAP2 (human, UniProt Q96G30 1-205, CA-Sulfo646 dye on the Halo tag)
T1 construct: human melanocortin-2 receptor accessory protein 2 (MRAP2); pRK5 construct with an N-terminal signal peptide from rat mGluR2 before the tags; also called ss-HA-Halo-MRAP2; source: HEK293, transiently transfected, in lysate (LMNG-CHS); not shown: HA, N-terminal, kept; Halo, N-terminal, kept
T1 sequence (looked up): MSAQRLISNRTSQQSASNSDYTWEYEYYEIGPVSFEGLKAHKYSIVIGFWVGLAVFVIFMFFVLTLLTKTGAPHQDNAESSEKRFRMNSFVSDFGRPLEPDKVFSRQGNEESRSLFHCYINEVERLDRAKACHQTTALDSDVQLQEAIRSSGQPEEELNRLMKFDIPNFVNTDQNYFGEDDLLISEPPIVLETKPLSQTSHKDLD
Test: single-molecule pull-down (SiMPull); two-colour SiMPull: HA-Halo-tagged bait (CA-Sulfo646) and FLAG-CLIP-tagged prey (BC-DY547) co-expressed in HEK293 cells (300 ng Halo and 600 ng CLIP plasmid), labelled before lysis in 0.5% LMNG/0.05% CHS, bait immobilised by biotinylated anti-HA antibody, co-localisation and photobleaching steps by TIRF
Settings: partners not purified

B1: FLAG-CLIP-MC3R (receptor, human, UniProt P41968 1-323, looked up)
chain: MNASCCLPSVQPTLPNGSEHLQAPFFSNQSSSAFCEQVFIKPEVFLSLGIVSLLENILVILAVVRNGNLHSPMYFFLCSLAVADMLVSVSNALETIMIAIVHSDYLTFEDQFIQHMDNIFDSMICISLVASICNLLAIAVDRYVTIFYALRYHSIMTVRKALTLIVAIWVCCGVCGVVFIVYSESKMVIVCLITMFFAMMLLMGTLYVHMFLFARLHVKRIAALPPADGVAPQQHSCMKGAVTITILLGVFIFCWAPFFLHLVLIITCPTNPYCICYTAHFNTYLVLIMCNSVIDPLIYAFRSLELRNTFREILCGCNGMNLG
modifications: BC-DY547 dye on the CLIP tag
notes: human melanocortin-3 receptor (MC3R); pRK5 construct with an N-terminal signal peptide from rat mGluR2 before the tags; also called ss-FLAG-CLIP-MC3R; source: HEK293, transiently transfected, in lysate (LMNG-CHS); not shown: FLAG, N-terminal, kept; CLIP, N-terminal, kept
  stoichiometry N: 1 MRAP2 per MC3R
